# The list shows a part of the results. Further columns of the screen follow, without active or inactive calls.
# How the values were obtained:
# Experiment in all cases: Primary Screen for Target Class Profiling of Small Molecule Inhibitors of Methyltransferases
# [1] = target: Glycine N-methyltransferase (Homo sapiens) (UniProt Q14749); settings: purified enzyme, MTase-Glo SAH luminescence; measured here: GNMT inhibition; at 40 µM; stronger effect = lower value
# Outline: (§1)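 Each enzyme was assayed with SAM and its substrate. SAH formation detected by MTase-Glo luminescence; single-point 40 uM screen[…].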
# [2] = target: Guanidinoacetate N-methyltransferase (Homo sapiens) (UniProt Q14353); settings: purified enzyme, MTase-Glo SAH luminescence; measured here: GAMT inhibition; at 40 µM; stronger effect = lower value
# Outline: as §1
# [3] = target: Histamine N-methyltransferase (Homo sapiens) (UniProt P50135); settings: purified enzyme, MTase-Glo SAH luminescence; measured here: HNMT inhibition; at 40 µM; stronger effect = lower value
# Outline: as §1
# [4] = target: Nicotinamide N-methyltransferase (Homo sapiens) (UniProt P40261); settings: purified enzyme, MTase-Glo SAH luminescence; measured here: NNMT inhibition; at 40 µM; stronger effect = lower value
# Outline: as §1
# [5] = target: Phenylethanolamine N-methyltransferase (Homo sapiens) (UniProt P11086); settings: purified enzyme, MTase-Glo SAH luminescence; measured here: PNMT inhibition; at 40 µM; stronger effect = lower value
# Outline: as §1
# On the % scale 0 is the no-effect control and ±100 the full control effect.
SMILES,"activity change, negative = inhibition [1]","activity change, negative = inhibition [2]","activity change, negative = inhibition [3]","activity change, negative = inhibition [4]","activity change, negative = inhibition [5]"
Cc1ccc(-c2[nH]ncc2CN2CC[C@@](C)(O)[C@H](N3CCCC3)C2)cc1,-10.4%,-14%,-13.8%,-24.6%,-12.8%
Cc1c(F)cc(C(=O)NC2CC2)cc1-c1c(F)cn2c(C(C)(C)C)nnc2c1F,-3.92%,-9.55%,4.11%,-19.1%,-12.4%
Cc1ccc(CNC(=O)Cn2nc3n(Cc4ccc(C)cc4)c(=O)c4ccccc4n3c2=O)cc1,-1.17%,1.53%,4.35%,1.86%,-1.08%
CC(C)Cn1c(=O)c2ccccc2n2c(CCC(=O)N3CCN(c4ccccc4F)CC3)nnc12,-14%,0%,5.67%,-33%,1.15%
Cc1ccc(N2C(=O)c3cc(-c4ccco4)nn3CC2(C)C(=O)NC2CCCCCC2)cc1 (configuration not stated),-5.29%,3.07%,-3.78%,-2.57%,-6.89%
CCN1CCN(C(=O)N[C@@H](C(=O)N[C@@H]2C(=O)N3[C@@H]2SC(C)(C)[C@@H]3C(=O)O)c2ccccc2)C(=O)C1=O,1.4%,4.05%,11.9%,-7.39%,6.15%
O=C(NCCc1c[nH]c2ccc(Cl)cc12)c1ccc(CN2C(=O)CCn3nccc32)cc1,-20.2%,-9.36%,-5.33%,-15%,-26.2%
Clc1ccc(-c2cnc3n2C[C@H](CNC2CCCC2)OC3)cc1,-8.39%,-9.71%,-18.3%,-17.9%,-14.7%
CCn1ccc(C(=O)N2CC[C@H](c3nc(C)no3)[C@H](NC(=O)C3CC3)C2)n1,-0.292%,-1.78%,-1.79%,-5.44%,-0.457%
CNC(=O)[C@H]1C[C@H](Oc2ccccc2)CN1S(=O)(=O)c1c(C)noc1C,-2.09%,-4.9%,-0.48%,-9.51%,-0.903%
CCCCN1C(=O)c2cc(C(=O)N3CCN(c4cccc(OC)c4)CC3)nn2CC1(C)C(=O)NC1CCCC1 (configuration not stated),2.6%,0%,6.58%,-4.35%,-1.67%
COCC1(CNC(=O)c2nc3ccccc3[nH]2)C[C@@H](O)[C@@H](O)C1 (some centres not stated),-0.508%,0.73%,1.2%,0.409%,-0.217%
CCOC(=O)c1cc2n(n1)CC(C)(C(=O)NCc1ccc(F)cc1)N(CCc1ccc(OCC)cc1)C2=O (configuration not stated),0.22%,0.044%,3.82%,-8.57%,2.72%
C[C@H]1[C@H](C)CC[C@]2(C(=O)O)CC[C@]3(C)C(=CCC4[C@@]5(C)C[C@@H](O)[C@H](O)C(C)(C)C5CC[C@]43C)[C@H]12 (some centres not stated),0%,-0.951%,0.673%,-16.3%,-0.313%
Cc1ccc(NC(=O)Cn2c(=O)oc3cc(S(=O)(=O)N4CC(C)CC(C)C4)ccc32)c(Cl)c1 (configuration not stated),9.15%,2.38%,12%,6.8%,7.64%
O[C@@H]1C[C@@H](c2nc(-c3ccc4c(c3)OCO4)no2)N(Cc2ccc(-c3ccccn3)cc2)C1,-9.47%,-8.98%,-6.79%,-13.5%,-9.93%
CCC(C)NC(=O)c1ccc2c(=O)n(C(C)C)c3nn(Cc4cccc(F)c4)c(=O)n3c2c1 (configuration not stated),-0.707%,1.24%,5.22%,-1.76%,0.27%
CCOC(=O)c1cc2n(n1)CC(C)(C(=O)NCc1ccccc1)N(Cc1ccc(OC)cc1OC)C2=O (configuration not stated),-1.38%,3.87%,1.52%,-11.2%,0.426%
COc1ccc(-c2cc(C(=O)N3C[C@@H](CN(C)C)[C@@H](CO)C3)[nH]n2)cc1,-8.77%,-1.29%,-12.2%,1.74%,0.355%

SMILES,"activity change, negative = inhibition [1]","activity change, negative = inhibition [2]","activity change, negative = inhibition [3]","activity change, negative = inhibition [4]","activity change, negative = inhibition [5]"
COc1cccc2c1OCC(C(=O)N1C[C@@H]3[C@H](C1)[C@H]1CC[C@@H]3O1)C2 (some centres not stated),-5.24%,-7.88%,-2.68%,-5.56%,-4.94%
CC(C)OCCCNC(=O)C1(C)Cn2c(cc3ccccc32)C(=O)N1Cc1ccc(F)cc1 (configuration not stated),9.45%,2.17%,7.72%,13.6%,3.22%
CC(=O)C1CCC(=O)N1Cc1ccccc1 (configuration not stated),0%,6.46%,10.7%,-4.77%,2.56%
CC1CCN(S(=O)(=O)c2ccc3c(c2)oc(=O)n3CC(=O)NCCc2ccccc2)CC1,-4.05%,0.296%,-4.71%,-7.93%,-7.39%
Cc1cc(C)cc(NS(=O)(=O)c2ccc3c(c2)NC(=O)CC(=O)N3)c1,3.08%,3.81%,5.18%,9.54%,0.429%
CC(C)Cn1c(=O)c2ccccc2n2c(=O)n(Cc3ccc(F)cc3Cl)nc12,5.78%,3.13%,9%,4.29%,7.79%
O=C(O)c1cccc(-c2cccc(C(F)(F)F)c2)c1,-16.1%,-8.51%,-7.62%,-22.4%,-9%
COCC(=O)N1CCCN(c2nc3ncccc3o2)CC1,-4.2%,-7.71%,0.463%,-14.9%,0.843%
CCCC1CCC(c2ccc(C(=O)COC(=O)C(Cc3c[nH]c4ccccc34)NC(=O)c3ccc(CC)cc3)cc2)CC1 (configuration not stated),2.18%,5.05%,-3.97%,-9%,-2.43%
O=C(c1ccc(CC2CC(=O)N(c3ccccc3)C2)nc1)N1CCCC1 (configuration not stated),-4.79%,-4.77%,-13.1%,-7.99%,1.04%
Cn1c(=O)c2ccc(C(=O)NC3CCCC3)cc2n2c(SCc3cccc(Cl)c3)nnc12,-2.59%,2.33%,1.74%,1.21%,-2.29%
Fc1ccc(C2CCNC[C@H]2COc2ccc3c(c2)OCO3)cc1 (some centres not stated),-1.1%,–,4.91%,–,–
CCOc1ccc(CNC(=O)Cn2ccc3cc(S(=O)(=O)N4CCCCC4)ccc32)cc1OC,0.877%,4.79%,-4.34%,-10.1%,-0.189%
COc1cccc(S(=O)(=O)N2CCC3(CC2)CC(OC)CCO3)c1 (configuration not stated),-0.313%,0%,6.22%,-2.15%,1.28%
COc1ccc(-c2cc(N3CCCC(NC(=O)c4cccc(C)c4)C3)n[nH]2)cc1 (configuration not stated),-12.4%,-12.6%,-8.77%,-24.2%,-11.4%
CCOc1ccccc1CNC(=O)c1cc2n(n1)CC(C)(C(=O)NC1CCCC1)N(C)C2=O (configuration not stated),9.73%,-0.81%,3.63%,-0.235%,-0.558%
CC1CC(C(O)C(C)(C)O)OC2CC3(C)C4(C)CCC5C(C)(C)C(=O)CCC5(C)C4CCC3(O)C12O (configuration not stated),0.91%,1.02%,6.27%,-14.8%,-7.11%
O=Nc1c(-c2c(O)[nH]c3cc(Br)ccc23)[nH]c2ccccc12,-42.3%,-27.9%,-28.6%,-33.9%,-32.6%

# — PubChem BioAssay AID1745853 (National Center for Advancing Translational Sciences (NCATS), 2022)
